The shares of active, inactive and inconclusive entries below differ from those in the screen. For some assays here: No potency is given beside an inconclusive call; the fits are too rough. Active and inactive are the calls of the source. Unless noted, the call rests on the fitted dose curve; in most records, active means well fitted curve in the direction sought with a large enough effect; inconclusive means small, poorly fitted or top-dose-only effect, or another doubt; inactive means no such curve, though single readings can be large; an effect the other way counts as inactive or inconclusive.
Columns and labels:
[1] = qHTS Assay for Identification of Small Molecule Antagonists for NFkB Signaling Pathway (AID 895; active means well fitted inhibition curve with a large enough effect in the signal ratio, with a control signal flat, not every such curve was filed as active; inconclusive means small, poorly fitted or top-dose-only effect, or effect the other way, or a change in a side signal; the % refers to the signal ratio; further: potency means the concentration at half of the fitted maximal effect; on activity change, negative = inhibition: on the % scale 0 is the no-effect control and ±100 the full control effect); settings: NFkB beta-lactamase reporter cells, FRET ratio 460/530, stimulated with 10 pM TNF alpha; activity change, negative = inhibition: at 38.3 µM (top of the series)
Method in brief: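 NFkB-bla ME-180 cervical carcinoma cells with beta-lactamase reporter under NFkB response element; compounds added, then TNF alpha at 10 pM final (EC50), 5 h at 37 C. LiveBLAzer substrate 2 h, room temperature; emission 460/530 nm at 405 nm excitation.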

[2] = target: Cytochrome P450 2C19 (Homo sapiens) (UniProt P33261); assay: qHTS Assay for Inhibitors and Substrates of Cytochrome P450 2C19 (AID 899); settings: recombinant CYP2C19, luciferin-H EGE luminescence; activity, negative = inhibition: at 11.4 µM (top of the series); further: potency means the concentration at half of the fitted maximal effect; nearly all actives have a fitted effect of over 60% in size
Sequence of UniProt P33261 (P33261 whole entry, looked up): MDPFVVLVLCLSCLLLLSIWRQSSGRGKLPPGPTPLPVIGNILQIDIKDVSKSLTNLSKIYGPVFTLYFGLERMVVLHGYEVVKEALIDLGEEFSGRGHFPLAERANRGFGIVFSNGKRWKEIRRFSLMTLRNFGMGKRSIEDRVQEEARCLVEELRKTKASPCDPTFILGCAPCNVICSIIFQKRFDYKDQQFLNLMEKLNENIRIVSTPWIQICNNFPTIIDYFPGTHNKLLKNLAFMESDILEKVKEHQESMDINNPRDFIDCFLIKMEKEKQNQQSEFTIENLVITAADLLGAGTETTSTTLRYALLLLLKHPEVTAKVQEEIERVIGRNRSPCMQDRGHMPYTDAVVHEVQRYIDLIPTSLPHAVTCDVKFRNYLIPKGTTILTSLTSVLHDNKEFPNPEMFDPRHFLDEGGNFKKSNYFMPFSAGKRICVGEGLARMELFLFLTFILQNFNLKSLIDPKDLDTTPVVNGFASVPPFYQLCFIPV
Method in brief: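 NADPH-dependent conversion of Luciferin-H EGE (10uM, at KM) by 5nM enzyme in 50mM KPO4, 60 min at 37C following 10 min compound preincubation. Stopped with luciferin detection buffer; luminescence read after 20 min.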

[3] = qHTS Assay for Identification of Small Molecule Agonists for Hypoxia Response Element Signaling Pathway (AID 914; active means well fitted activation curve with a large enough effect in the signal ratio, with a control signal flat, not every such curve was filed as active; inconclusive means small, poorly fitted or top-dose-only effect, or effect the other way, or a change in a side signal; the % refers to the signal ratio; further: potency means the concentration at half of the fitted maximal effect; on activation: top concentration of the series differs between compounds; % of control where 0% means no effect); settings: ME-180 HRE-bla reporter, beta-lactamase ratio, CoCl2, 17 h; activation: hits give high values
Method in brief: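 AC50 values come from titration-series %Activity, taken as the 460/530nm ratio of CCF4 fluorescence (excitation 405nm). CellSensor HRE-bla ME-180 cells were treated 17 hours at 37 C with compound plus an EC50 level of CoCl2.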

[4] = qHTS Assay for Identification of Small Molecule Antagonists for Thrombopoietin (TPO) Signaling Pathway (AID 918); settings: TPO-dependent cell signaling reporter, antagonist mode; activity change, negative = inhibition: at 38.5 µM (top of the series); further: nearly all actives have a fitted effect of over 60% in size
Method in brief: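 Ba/F3 (murine, hTPO-R, GPIIb-luc reporter); overnight IL-3 withdrawal; cpd + TPO 26 pM final (EC50); 24 h 37 C/5% CO2; Steadylite luminescence after 10 min RT.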

[5] = qHTS Assay for Identification of Small Molecule Agonists for Thrombopoietin (TPO) Signaling Pathway (AID 917); settings: TPO signaling pathway reporter cells, agonist qHTS, stimulated with TPO at its EC50; series mostly up to 38.5 µM; further: potency means the concentration at half of the fitted maximal effect
Method in brief: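 Murine Ba/F3 cells stably expressing human TPO receptor and a Glycoprotein IIb promoter–luciferase reporter were IL-3-starved overnight, then treated with compounds plus TPO (26 pM final, its EC50) for 24 hrs at 37 C; luminescence was read.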

[6] = target: Muscarinic acetylcholine receptor M1 (Rattus norvegicus) (UniProt P08482); assay: qHTS Assay for Antagonists of Acetylcholine Muscarinic M1 Receptor: Kinetic Measurement of Intracellular Calcium Response (AID 943); settings: M1-expressing cells, kinetic intracellular calcium fluorescence; series mostly up to 35.3 µM; further: nearly all actives have a fitted effect of over 75% in size; further: potency means the concentration at half of the fitted maximal effect;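 on activity change, negative = inhibition: Fluo-4 calcium signal as peak divided by basal fluorescence over 4 min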
Sequence of UniProt P08482 (P08482 whole entry, looked up): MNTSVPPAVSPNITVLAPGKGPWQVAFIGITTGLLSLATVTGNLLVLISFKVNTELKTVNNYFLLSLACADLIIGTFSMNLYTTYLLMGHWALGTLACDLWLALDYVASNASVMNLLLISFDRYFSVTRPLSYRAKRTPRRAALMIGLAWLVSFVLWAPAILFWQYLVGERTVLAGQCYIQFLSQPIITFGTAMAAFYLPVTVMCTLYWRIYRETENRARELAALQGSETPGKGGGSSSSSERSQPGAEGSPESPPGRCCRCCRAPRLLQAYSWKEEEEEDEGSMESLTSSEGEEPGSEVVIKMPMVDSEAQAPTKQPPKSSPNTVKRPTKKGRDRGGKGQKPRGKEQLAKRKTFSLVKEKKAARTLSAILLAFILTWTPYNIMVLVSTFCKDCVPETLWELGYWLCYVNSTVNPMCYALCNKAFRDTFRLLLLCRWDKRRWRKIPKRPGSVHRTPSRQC
Method in brief: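 Rat M1-CHO cells, 2000/well, overnight → Fluo-4 no-wash dye with probenecid, 1 h 37C → compound 10 min, room temp → basal read 6 s → carbachol EC80 (100 nM) → 4 min kinetic read; peak/basal.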

[7] = target: Muscarinic acetylcholine receptor M1 (Rattus norvegicus) (UniProt P08482); assay: qHTS Assay for Antagonists of Acetylcholine Muscarinic M1 Receptor: Measurement of IP-One Response (AID 944); settings: CHO-M1 cells, IP-One HTRF, antagonist mode; series mostly up to 46.1 µM; further: nearly all actives have a fitted effect of over 75% in size; further: potency means the concentration at half of the fitted maximal effect
[8] = qHTS Assay for Identification of Small Molecule Agonists for NFkB Signaling Pathway (AID 928; calls by dose curve); settings: NFkB beta-lactamase reporter cells, blue/green ratio
Method in brief: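 ME-180 NFkB-bla cells carry a beta-lactamase reporter under an NFkB response element. Compound plus 10 pM TNF alpha (final) was applied for 5 hrs at 37 C. After 2 hrs with LiveBLAzer substrate, 460/530 nm emission was read at 405 nm excitation.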
Tags describe the fitted curve by direction and shape or compound fluorescence and quenching.

O=C(O)[C@H]1CCCN(CCC=C(c2ccccc2)c2ccccc2)C1
Potency [1]: inconclusive [inhibitor, single point]
Potency [2]: inconclusive [inhibitor, full curve, poor fit]
activation [3]: inconclusive: -31.4%
activity change, negative = inhibition [4]: inconclusive: -13.5% [phenotype inactive]

CN1CCc2c(cc(O)c(O)c2Cl)[C@H](c2cccc(Cl)c2)C1
Potency [1]: inconclusive [inhibitor, full curve, poor fit]
Potency [3]: inconclusive [inhibitor, full curve]
Potency [5]: inconclusive [inhibitor, single point]
Potency [6]: inconclusive [inhibitor, partial curve, poor fit]
Potency [7]: inconclusive [inhibitor, single point]

CNC(=O)[C@@H]1O[C@@H](n2cnc3c(NCc4ccc(N)cc4)ncnc32)[C@@H](O)[C@H]1O
Potency [1]: active: 12.6 µM
activity change, negative = inhibition [4]: inconclusive: -3.96% [phenotype inactive]
Potency [8]: inconclusive [inhibitor, partial curve]
Potency [6]: inactive

CN1CC[C@@]2(CCN3CCc4c(oc5ccccc45)[C@@H]3C2)N(C)C1=O
Potency [1]: inactive
Potency [5]: inconclusive [inhibitor, partial curve]
Potency [7]: inconclusive [inhibitor, partial curve, poor fit]

COc1cc([C@@H](O)CO)ccc1OS(=O)(=O)O
Potency [1]: inconclusive [inhibitor, full curve, poor fit]
activity change, negative = inhibition [4]: inconclusive: -9.47% [phenotype inactive]
Potency [6]: inconclusive [inhibitor, full curve, poor fit]
Potency [7]: inconclusive [inhibitor, partial curve, poor fit]

C[C@H](N)C(=O)OC(C)(C)Cc1ccc(Cl)cc1
Potency [1]: inconclusive [inhibitor, partial curve]
activation [3]: inconclusive: 29.5%
activity change, negative = inhibition [4]: inconclusive: -20.4% [phenotype inactive]
Potency [6]: inconclusive [inhibitor, partial curve, poor fit]
Potency [7]: inactive

NC(=O)C1=CN([C@@H]2O[C@@H](COP(=O)(O)OP(=O)(O)OC[C@@H]3O[C@H](n4cnc5c(N)ncnc54)[C@@H](OP(=O)(O)O)[C@@H]3O)[C@H](O)[C@@H]2O)C=CC1
Potency [1]: inactive
activity change, negative = inhibition [4]: inconclusive: 0.76% [phenotype inactive]
Potency [6]: inconclusive [inhibitor, full curve, poor fit]

Cc1nnc(SCC2=C(C(=O)O)N3C(=O)[C@@H](NC(=O)Cn4cnnn4)[C@@H]3SC2)s1
Potency [1]: inconclusive [activator, full curve, poor fit]
activity change, negative = inhibition [4]: inconclusive: -12.2% [phenotype inactive]

CCCCCC[C@@H]([C@H](C)O)n1cnc2c(N)ncnc21
activity change, negative = inhibition [1]: inconclusive: -32.9%
Potency [3]: inconclusive [activator, full curve]
activity change, negative = inhibition [4]: inconclusive: -15.7% [phenotype inactive]

CCCCC/C=C\C[C@H](O)/C=C\c1cccc(C[C@H](O)CCCCO)n1
Potency [1]: inconclusive [activator, full curve]
activity change, negative = inhibition [4]: inconclusive: -18% [phenotype inactive]
Potency [6]: inconclusive [inhibitor, partial curve, poor fit]
Potency [7]: inconclusive [inhibitor, partial curve, poor fit]

Cn1c(=O)c2c(nc(/C=C\c3cccc(Cl)c3)n2C)n(C)c1=O
activity change, negative = inhibition [1]: inconclusive: -7.85%
Potency [3]: inconclusive [activator, single point]
activity change, negative = inhibition [4]: inconclusive: 3.1% [phenotype inactive]
Potency [6]: inconclusive [inhibitor, partial curve, poor fit]

Nc1nc(Cl)nc2c1ncn2[C@@H]1O[C@@H](CO)[C@@H](O)[C@H]1O
Potency [1]: inconclusive [activator, full curve]
Potency [5]: inconclusive [inhibitor, partial curve]
Potency [6]: inconclusive [inhibitor, full curve, poor fit]

O=C(O)[C@H]1CCCNC1
activity change, negative = inhibition [1]: inconclusive: -32%
activity change, negative = inhibition [4]: inconclusive: 8.83% [phenotype inactive]
Potency [6]: inactive
Potency [7]: inactive

CC(C)(C(=O)O)c1ccc([C@@H](O)CCCN2CCC(C(O)(c3ccccc3)c3ccccc3)CC2)cc1
activity change, negative = inhibition [1]: inconclusive: -42.5%
activity change, negative = inhibition [4]: inconclusive: -3.08% [phenotype inactive]

Source: PubChem BioAssay (NCATS)
